# Data reported in the supplement of paper PMC8728848.
# The list shows a part of the results.
# B1: EPL1 (Trichoderma atroviride), A0PCX2 (protein)
# chain: MQLSNLFKLALFTAAVSADTVSYDTGYDDASRSLTVVSCSDGTNGLITRYHWQTQGQIPRFPYIGGAQAVAGWNSPNCGTCWKLTYSGKTIYVLAIDHTAAGFNIGLDAMNALTNGNAVALGRVSATASQVAVSNCGL
# How the values were obtained:
# Assay in all cases: glycan array binding signal (z-score within array); higher = stronger binding
# Details in all cases: glycan notation: IUPAC condensed, linker removed
# Gal(a1-6)Glc = biological target: Gal(a1-6)Glc
# How it was run: (§1)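 Negative Z-scores can be read as non-binding. The Z-score is calculated within each array and then averaged across arrays of one protein sequence at different concentrations or buffers and across linkers. Arrays, 3228 in all, were curated from the Consortium for Functional Glycomics database and kept only where the protein sequence was available.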
# Gal(b1-2)Gal = biological target: Gal(b1-2)Gal
# How it was run: as §1
# Gal(b1-3)Gal = biological target: Gal(b1-3)Gal
# How it was run: as §1
# Gal(b1-3)Gal(b1-4)GlcNAc = biological target: Gal(b1-3)Gal(b1-4)GlcNAc
# How it was run: as §1
# Gal(b1-3)GalNAc = biological target: Gal(b1-3)GalNAc
# How it was run: as §1
# [1] = biological target: Gal(b1-3)GalNAc(a1-3)[Fuc(a1-2)]Gal(b1-4)Glc
# How it was run: as §1
# [2] = biological target: Gal(b1-3)GalNAc(a1-3)[Fuc(a1-2)]Gal(b1-4)GlcNAc
# How it was run: as §1
# Gal(b1-3)GalNAc(b1-3)Gal = biological target: Gal(b1-3)GalNAc(b1-3)Gal
# How it was run: as §1
# [3] = biological target: Gal(b1-3)GalNAc(b1-3)Gal(a1-4)Gal(b1-4)Glc
# How it was run: as §1
# [4] = biological target: Gal(b1-3)GalNAc(b1-4)Gal(b1-4)Glc
# How it was run: as §1
# [5] = biological target: Gal(b1-3)GalNAc(b1-4)[Neu5Ac(a2-3)]Gal(b1-4)Glc
# How it was run: as §1
# Gal(b1-3)GlcNAc = biological target: Gal(b1-3)GlcNAc
# How it was run: as §1
# [6] = biological target: Gal(b1-3)GlcNAc(a1-3)Gal(b1-4)GlcNAc
# How it was run: as §1
# [7] = biological target: Gal(b1-3)GlcNAc(a1-6)Gal(b1-4)GlcNAc
# How it was run: as §1
# Gal(b1-3)GlcNAc(b1-2)Man = biological target: Gal(b1-3)GlcNAc(b1-2)Man
# How it was run: as §1
# [8] = biological target: Gal(b1-3)GlcNAc(b1-2)Man(a1-3)[Gal(b1-3)GlcNAc(b1-2)Man(a1-6)]Man(b1-4)GlcNAc(b1-4)GlcNAc
# How it was run: as §1
# [9] = biological target: Gal(b1-3)GlcNAc(b1-2)Man(a1-3)[Gal(b1-3)GlcNAc(b1-2)Man(a1-6)]Man(b1-4)GlcNAc(b1-4)[Fuc(a1-6)]GlcNAc
# How it was run: as §1
# [10] = biological target: Gal(b1-3)GlcNAc(b1-2)Man(a1-3)[GlcNAc(b1-4)][Gal(b1-3)GlcNAc(b1-2)Man(a1-6)]Man(b1-4)GlcNAc(b1-4)GlcNAc
# How it was run: as §1
# [11] = biological target: Gal(b1-3)GlcNAc(b1-2)[Gal(b1-3)GlcNAc(b1-6)]Man(a1-6)[Gal(b1-3)GlcNAc(b1-2)Man(a1-3)]Man(b1-4)GlcNAc(b1-4)GlcNAc
# How it was run: as §1
# [12] = biological target: Gal(b1-3)GlcNAc(b1-3)Gal(b1-3)GlcNAc
# How it was run: as §1
# [13] = biological target: Gal(b1-3)GlcNAc(b1-3)Gal(b1-4)Glc
# How it was run: as §1
# [14] = biological target: Gal(b1-3)GlcNAc(b1-3)Gal(b1-4)GlcNAc
# How it was run: as §1
# [15] = biological target: Gal(b1-3)GlcNAc(b1-3)Gal(b1-4)GlcNAc(b1-2)Man(a1-3)[Gal(b1-3)GlcNAc(b1-3)Gal(b1-4)GlcNAc(b1-2)Man(a1-6)]Man(b1-4)GlcNAc(b1-4)GlcNAc
# How it was run: as §1
# [16] = biological target: Gal(b1-3)GlcNAc(b1-3)Gal(b1-4)GlcNAc(b1-2)[Gal(b1-3)GlcNAc(b1-3)Gal(b1-4)GlcNAc(b1-6)]Man(a1-6)[Gal(b1-3)GlcNAc(b1-3)Gal(b1-4)GlcNAc(b1-2)Man(a1-3)]Man(b1-4)GlcNAc(b1-4)[Fuc(a1-6)]GlcNAc
# How it was run: as §1
# [17] = biological target: Gal(b1-3)GlcNAc(b1-3)Gal(b1-4)GlcNAc(b1-3)Gal(b1-4)GlcNAc(b1-2)[Gal(b1-3)GlcNAc(b1-3)Gal(b1-4)GlcNAc(b1-3)Gal(b1-4)GlcNAc(b1-6)]Man(a1-6)[Gal(b1-3)GlcNAc(b1-3)Gal(b1-4)GlcNAc(b1-3)Gal(b1-4)GlcNAc(b1-2)Man(a1-3)]Man(b1-4)GlcNAc(b1-4)[Fuc(a1-6)]GlcNAc
# How it was run: as §1
# [18] = biological target: Gal(b1-3)GlcNAc(b1-3)Gal(b1-4)GlcNAc(b1-6)[Gal(b1-3)GlcNAc(b1-3)]Gal(b1-4)Glc
# How it was run: as §1
# [19] = biological target: Gal(b1-3)GlcNAc(b1-3)Gal(b1-4)[Fuc(a1-3)]GlcNAc
# How it was run: as §1
# [20] = biological target: Gal(b1-3)GlcNAc(b1-3)Gal(b1-4)[Fuc(a1-3)]GlcNAc(b1-6)[Gal(b1-3)GlcNAc(b1-3)]Gal(b1-4)Glc
# How it was run: as §1
# [21] = biological target: Gal(b1-3)GlcNAc(b1-3)GalNAc
# How it was run: as §1
# [22] = biological target: Gal(b1-3)GlcNAc(b1-6)Gal(b1-4)GlcNAc
# How it was run: as §1
# [23] = biological target: Gal(b1-3)GlcNAc(b1-6)GalNAc
# How it was run: as §1
# [24] = biological target: Gal(b1-3)GlcNAc(b1-6)[Gal(b1-3)]GalNAc
# How it was run: as §1
# Gal(b1-3)GlcNAc6S = biological target: Gal(b1-3)GlcNAc6S
# How it was run: as §1
# [25] = biological target: Gal(b1-3)[Fuc(a1-4)]GlcNAc
# How it was run: as §1
# [26] = biological target: Gal(b1-3)[Fuc(a1-4)]GlcNAc(b1-2)Man
# How it was run: as §1
# [27] = biological target: Gal(b1-3)[Fuc(a1-4)]GlcNAc(b1-2)Man(a1-3)[Gal(b1-3)[Fuc(a1-4)]GlcNAc(b1-2)Man(a1-6)]Man(b1-4)GlcNAc(b1-4)[Fuc(a1-6)]GlcNAc
# How it was run: as §1
# [28] = biological target: Gal(b1-3)[Fuc(a1-4)]GlcNAc(b1-3)Gal(b1-3)[Fuc(a1-4)]GlcNAc
# How it was run: as §1
# [29] = biological target: Gal(b1-3)[Fuc(a1-4)]GlcNAc(b1-3)Gal(b1-4)[Fuc(a1-3)]GlcNAc
# How it was run: as §1
# [30] = biological target: Gal(b1-3)[Fuc(a1-4)]GlcNAc(b1-6)GalNAc
# How it was run: as §1
# [31] = biological target: Gal(b1-3)[GlcNAc(b1-6)]GalNAc
# How it was run: as §1
# [32] = biological target: Gal(b1-3)[Neu5Ac(a2-6)]GalNAc
# How it was run: as §1
# [33] = biological target: Gal(b1-3)[Neu5Ac(a2-6)]GlcNAc(b1-4)Gal(b1-4)Glc
# How it was run: as §1
# [34] = biological target: Gal(b1-3)[Neu5Ac(b2-6)]GalNAc
# How it was run: as §1
# Gal(b1-4)Gal = biological target: Gal(b1-4)Gal
# How it was run: as §1
# [35] = biological target: Gal(b1-4)GalNAc(a1-3)[Fuc(a1-2)]Gal(b1-4)GlcNAc
# How it was run: as §1
binder,measurement,setting,value
B1,glycan array binding signal (z-score),Gal(a1-6)Glc,0.163
same,glycan array binding signal (z-score),Gal(b1-2)Gal,-0.342
same,glycan array binding signal (z-score),Gal(b1-3)Gal,-0.661
same,glycan array binding signal (z-score),Gal(b1-3)Gal(b1-4)GlcNAc,-0.393
same,glycan array binding signal (z-score),Gal(b1-3)GalNAc,0
same,glycan array binding signal (z-score),[1],0.12
same,glycan array binding signal (z-score),[2],-0.552
same,glycan array binding signal (z-score),Gal(b1-3)GalNAc(b1-3)Gal,-0.342
same,glycan array binding signal (z-score),[3],-0.659
same,glycan array binding signal (z-score),[4],-0.263
same,glycan array binding signal (z-score),[5],0.479
same,glycan array binding signal (z-score),Gal(b1-3)GlcNAc,-0.355
same,glycan array binding signal (z-score),[6],-0.079
same,glycan array binding signal (z-score),[7],-0.153
same,glycan array binding signal (z-score),Gal(b1-3)GlcNAc(b1-2)Man,-0.026
same,glycan array binding signal (z-score),[8],0.242
same,glycan array binding signal (z-score),[9],-0.255
same,glycan array binding signal (z-score),[10],-0.356
same,glycan array binding signal (z-score),[11],-0.036
same,glycan array binding signal (z-score),[12],-0.17
same,glycan array binding signal (z-score),[13],1.82
same,glycan array binding signal (z-score),[14],-0.163
same,glycan array binding signal (z-score),[15],0.737
same,glycan array binding signal (z-score),[16],0.678
same,glycan array binding signal (z-score),[17],0.216
same,glycan array binding signal (z-score),[18],-0.541
same,glycan array binding signal (z-score),[19],0.654
same,glycan array binding signal (z-score),[20],-0.506
same,glycan array binding signal (z-score),[21],-0.677
same,glycan array binding signal (z-score),[22],0.204
same,glycan array binding signal (z-score),[23],-0.18
same,glycan array binding signal (z-score),[24],0.023
same,glycan array binding signal (z-score),Gal(b1-3)GlcNAc6S,-0.524
same,glycan array binding signal (z-score),[25],-0.24
same,glycan array binding signal (z-score),[26],-0.149
same,glycan array binding signal (z-score),[27],-0.059
same,glycan array binding signal (z-score),[28],0.594
same,glycan array binding signal (z-score),[29],-0.205
same,glycan array binding signal (z-score),[30],-0.249
same,glycan array binding signal (z-score),[31],-0.027
same,glycan array binding signal (z-score),[32],-0.218
same,glycan array binding signal (z-score),[33],0.17
same,glycan array binding signal (z-score),[34],0.127
same,glycan array binding signal (z-score),Gal(b1-4)Gal,-0.162
same,glycan array binding signal (z-score),[35],0.709
